According to PubChem BioAssay AID686971 (National Center for Advancing Translational Sciences (NCATS), 2013):
Values joined by “and” are separate entries in the source; they are usually repeats but may differ in a detail not shown here. Equal values may be shown once. Hit rate of the full screen: of about 360,000 compounds, about 7,500 (2.1%) were called active. Inconclusive means that the source gave no clear call. Such entries were picked first, then a sample of the others. The call rests on the fitted dose curve; in most records, active means well fitted cell-killing curve with a large enough effect; inconclusive means small, poorly fitted or top-dose-only effect, or effect the other way, or another doubt; inactive means no such curve, though single readings can be large or run the other way. Potencies of inconclusive entries are left out as doubtful fits.

Experiment: qHTS for induction of synthetic lethality in tumor cells producing 2HG: qHTS for the HT-1080-IDH1KD cell line;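 on activity, negative = toxicity: 0% = DMSO wells and -100% = cell-free medium wells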
Settings: HT-1080 IDH1 knockdown viability, ATP luminescence, 48 h; activity, negative = toxicity: at 46.1 µM (top of the series) unless noted
Outline: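 After a 2 h attachment period, IDH1KD HT-1080 cells took pin-transferred compound for 48 h at 37 °C; ATP-based luminescence after 10 min room-temperature reagent incubation reported viability.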
Potency means the concentration at half of the fitted maximal effect; tags describe the fitted curve by direction and shape.

| SMILES | activity, negative = toxicity | Potency |
| --- | --- | --- |
| CCOc1cccc(-c2nnc(SCC(=O)Nc3cc(C)ccc3OC)n2N)c1 | inactive: 3.12% | – |
| CC(C)(C)OC(=O)[C@H](Cc1ccccc1)NC(=O)c1nc[nH]c1C(=O)NC1CCN(C(=O)OC(C)(C)C)CC1 | – | inconclusive [cytotoxic, single point] |
| Cc1nn(Cc2cccc(C(=O)NC34CC5CC(CC(C5)C3)C4)c2)c(C)c1Br | – | inconclusive [cytotoxic, single point] |
| NC1=Nc2cccc3cccc1c23 | – | inconclusive [cytotoxic, single point] |
| CCc1ccc2oc(=O)cc(CN3CCCCC3)c2c1 | inactive: 7.43% | – |
| Clc1ccc2nc(-c3ccco3)c(Cc3ccccc3)n2c1 | – | inconclusive [cytotoxic, single point] |
| COc1ccccc1Cc1c(C(C)(C)C)nc2ccc(C)cn12 | – | inconclusive [cytotoxic, single point] |
| CCCC(O)(c1ccc(Cl)cc1)C(CN1CCOCC1)c1ccc(Cl)cc1 (stereo not given) | – | inconclusive [cytotoxic, single point] |
| Cc1ccc(-c2csc(NC(=O)C3CCN(S(=O)(=O)c4cccs4)CC3)n2)cc1 | – | inconclusive [cytotoxic, partial curve] |
| CCOC(CN=c1nc(N(C)C)ss1)OCC | – | inconclusive [cytotoxic, single point] |
| CCCCOCCCNC(=O)C[C@@H]1C[C@@]2(C(=O)OC)CCCCC=C2N(Cc2cccc3ccccc23)C1=O | – | inconclusive [cytotoxic, single point] |
| Cc1ccc(S(=O)(=O)Nc2ccc3cc([N+](=O)[O-])ccc3c2[N+](=O)[O-])cc1 | – | inconclusive [cytotoxic, full curve] |
| Clc1ccc2c(N/N=C/c3ccc(Br)cc3)ccnc2c1 | – | inconclusive [cytotoxic, single point] |
| CCOC(=O)c1ccc(NC(=O)N2CCN(Cc3cccc(F)c3)CC2)cc1 | – | inconclusive [cytotoxic, single point] |
| CCn1ncc(C2=NOC(C(=O)NCc3ccccc3)C2)c1C (stereo not given) | – | active: 1.78 µM |
| Cc1cnc(=O)[nH]c1SCc1ccccc1F | inactive: 0% | – |
| O=C(Oc1c(CN2CCOCC2)cc(Cl)c2cccnc12)c1ccccc1 | – | active: 10.3 µM |
| O=C(N/N=C/c1c(O)ccc2ccccc12)c1ccc(CO)nc1 | – | inconclusive [cytotoxic, full curve] |
| COc1ccc(NC(=O)C2(C)CCN2Cc2ccc(OC)c3ccccc23)cc1OC (stereo not given) | – | active: 23.1 µM |
| COc1cc(S(=O)(=O)NC2CCSc3ccccc32)ccc1NC(C)=O (stereo not given) | inactive: -0.433% | – |
| COc1ccc(CCNC(=O)CSc2nc3ccsc3c(=O)n2CC2CCC(C(=O)O)CC2)cc1OC (stereo not given) | inactive: -0.872% | – |
| CCOC(=O)Nc1ccc2c(c1)N(C(=O)OC)c1ccccc1CC2 | – | inconclusive [cytotoxic, single point] |
| COc1ccc(CCNC(=O)C(C(=O)c2ccc(F)cc2)n2ccccc2=O)cc1OC (stereo not given) | inactive: 3.27% | – |
| Cc1ccc(Oc2nc3ccccn3c(=O)c2/C=C(\C#N)C(=O)NC2CCS(=O)(=O)C2)c(C)c1 (stereo not given) | – | inconclusive [rising, single point] |

| SMILES | activity, negative = toxicity | Potency |
| --- | --- | --- |
| O=C1NN(c2ccccc2)C(=O)/C1=C\c1coc2ccc(O)cc2c1=O | – | inconclusive [cytotoxic, partial curve] |
| O=C(NCCc1ccccn1)c1cc(-c2ccc(Cl)c(Cl)c2Cl)nc2ccccc12 | inconclusive: -34.9% [cytotoxic] | – |
| Cc1cc(C(=O)NCC(c2cccs2)N2CCOCC2)ccc1[N+](=O)[O-] (stereo not given) | – | inconclusive [cytotoxic, single point] |
| CNc1ccc(Br)cc(C(=O)/C=C/c2cc(OC)ccc2OC)c1=O | – | inconclusive [cytotoxic, partial curve] |
| O=C(O)c1cc(-c2ccccc2)nn1CC1CC(c2cccc([N+](=O)[O-])c2)=NO1 (stereo not given) | inactive: 5.84% | – |
| CCN1C=C(Cc2ccc(OC)cc2)C2=C(C1)C(c1ccc(OC)cc1)C(C#N)=C(N)O2 (stereo not given) | – | inconclusive [cytotoxic, single point] |
| Cc1cc(C)cc(N(CC(=O)NC2CCCC2)C(=O)C2(C)CC(=O)N=C3C=CC=CN32)c1 (stereo not given) | inactive: 3.07% | – |
| CCCOc1ccc(C(=O)Nc2ccc(Cl)cn2)cc1 | inactive: -0.989% | – |
| CCN(CC)C(=O)/C(=C/c1cn(S(=O)(=O)N(C)C)c2ccccc12)NC(=O)c1ccc(OC)cc1 | – | inconclusive [cytotoxic, single point] |
| O=c1c2c3c(sc2nc(NCCO)n1-c1ccccc1)CCCC3 | – | inconclusive [cytotoxic, partial curve] |
| C(C#CCCCCCCCCC[n+]1ccccc1)#CCCCCCCCCC[n+]1ccccc1 | – | active: 3.66 µM and active: 7.31 µM |
| CC(=O)c1ccc(N2CCC(c3cc(-c4ccc(Cl)cc4)n[nH]3)CC2)c([N+](=O)[O-])c1 | – | inconclusive [cytotoxic, single point] |
| C=CCNC(=O)NC(=O)COC(=O)/C(C#N)=C/c1ccc(OC)cc1 | inactive: 1.55% | – |
| Cc1sc2nc(C3CC3)nc(N3CCN(C(=O)c4ccccc4F)CC3)c2c1C | – | inconclusive [cytotoxic, single point] |
| Oc1ccc(Br)cc1C=Nc1ccc(Cl)cc1 | inactive: -6.17% | – |
| Clc1cccc(N2CCN(CCCN3CCN(c4ccccc4)CC3)CC2)c1 | – | inconclusive [cytotoxic, partial curve] |
| O=C1CCN(C(=O)c2ccccc2)C2CCCCC12 (stereo not given) | inactive: 0.014% | – |
| Cn1c(/C=C/c2ccc(Cl)cc2)c([N+](=O)[O-])c(=O)n(C)c1=O | – | inconclusive [cytotoxic, single point] |
| O=C(c1ccc(Br)cc1)c1cc([N+](=O)[O-])ccc1N1CCCCC1 | – | active: 2.06 µM |
| C1COC(NC(C2CC2)C2CC2)=N1 | – | inconclusive [cytotoxic, single point] |
| Cc1ccc(-n2nnc3c(SCC(=O)NCc4ccco4)ncnc32)cc1 | – | inconclusive [cytotoxic, single point] |
| Cc1cc(Cl)ccc1OCCCC(=O)NC1CCN(C)CC1 | – | inconclusive [cytotoxic, single point] |
| O=C(NCc1ccccc1Cl)C1CCN(S(=O)(=O)c2cccs2)CC1 | – | inconclusive [rising, single point] |
| O=C(N/N=C(\Cc1ncc[nH]1)c1ccccc1)c1ccncc1 | – | active: 4.11 µM |

| SMILES | activity, negative = toxicity | Potency |
| --- | --- | --- |
| OC[C@@H]1CN(Cc2cccs2)C[C@H](n2cnc3c(Nc4ccccc4)ncnc32)O1 | inactive: -11% | – |
| Cc1ccn2c(NC3CCCCC3)c(-c3cccc(-c4cccc(Cl)c4)c3)nc2c1 | – | inconclusive [cytotoxic, single point] |
| CC(=O)Nc1cnc(-c2ccccc2C(F)(F)F)cn1 | – | inconclusive [rising, partial curve] |
| Cc1c(C(=O)Nc2cccnc2)oc2ccc(Br)cc12 | – | inconclusive [cytotoxic, partial curve] |
| CCOc1ccc(CCN2C(=S)N([C@@H](Cc3ccc(O)cc3)CN3CCC[C@@H]3CN3C(=S)NC[C@@H]3Cc3ccc(O)cc3)C[C@@H]2Cc2ccc(O)cc2)cc1 | – | active: 20.6 µM |
| N#CC1=C(N)Oc2cc3c(cc2C1c1ccc(Cl)cc1)OCO3 (stereo not given) | – | inconclusive [cytotoxic, partial curve] |
| Oc1cccc(Nc2c3ccccc3nc3ccccc23)c1 | – | inconclusive [cytotoxic, single point] |
| Cc1cc(C)n(-c2nc3c(c(=O)[nH]c(=O)n3C)n2CCc2ccccc2)n1 | – | inconclusive [cytotoxic, single point] |
| COc1ccc(CCn2c(N)c(C(=O)NCc3ccco3)c3nc4ccccc4nc32)cc1 | – | inconclusive [cytotoxic, partial curve] |
| Cc1cccc(N2CCN(S(=O)(=O)c3ccc4c(c3)NC(=O)C(C)S4)CC2)c1C (stereo not given) | – | inconclusive [cytotoxic, partial curve] |
| Cc1cc(NC(=O)CSc2nc3ccccc3c(=O)n2C2CCCC2)no1 | – | active: 1.84 µM |
| COCCSc1nnc(NC(=O)CCS(=O)(=O)c2ccccc2)s1 | – | active: 23.1 µM |
| OC(Cc1cccc(Br)c1)c1ncc(-c2ccccc2C(F)(F)F)[nH]1 (stereo not given) | – | inconclusive [cytotoxic, single point] |
| CCCC(=O)NC(c1ccc(Cl)cc1Cl)c1ccc2cccnc2c1O (stereo not given) | – | active: 8.2 µM |
| Cc1cnc(C(=O)Nc2cccc3cccnc23)cn1 | inconclusive: -30.6% [cytotoxic] | – |
| CCc1nnc(N/N=C/c2ccc(N3CCC(C)CC3)c([N+](=O)[O-])c2)n1N | – | active: 32.6 µM |
| CC(C(=O)OCC(=O)c1ccccc1)N1C(=O)C2C3CCC(C3)C2C1=O (stereo not given) | inactive: 27.5% | – |
| COc1cc(C=O)c(Br)cc1OCC(=O)NCCc1ccccc1 | – | inconclusive [cytotoxic, partial curve] |
| CCN(CC)c1ccc(/C=N/NC(=O)c2ccc(Br)o2)cc1 | – | inconclusive [cytotoxic, single point] |
| CCOC(=O)N1C(=O)[C@@](c2ccc(Cl)cc2)(C(C)C)N1C(=O)OCC | – | inconclusive [cytotoxic, single point] |
| Cc1cc(C)c(C#N)c(SCc2nnc(-c3ccccc3)o2)n1 | inactive: 4.96% | – |
| O=[N+]([O-])c1cccc(COc2cccc(CN3CCOCC3)c2)c1 | inactive: -6.58% | – |
